The source of these data is patent US8507506B2, “Theophylline derivative inhibits osteoporosis” (Kaohsiung Medical University, priority 2011, dated 2013).

This test has as its system osteoclast-like cells, OCL. Nature of the test: Intracellular calcium (fura-2/AM), RANKL-induced calcium influx. The settings on record: 0.1 μM, FIGS. 14 and 15. As to the method:
The key transcription factor, NFATc1, is affected by MAP kinases/c-Fos and also influenced by the calcium pathway. […] . Macrophages, RAW264.7, are stimulated by RANKL for 4 minutes, and a fluorescent probe of calcium (fura-2/AM) is used to exam the inner-cellular calcium. As shown in FIG. 14(A), the concentration of the inner-cellular calcium dose not change obviously. In the cell culture, the stimulation of RANKL is applied in advance for one week to make macrophages to differentiate into osteocalast-like cells, OCL, and then the osteoclast-like cells are stimulated by RANKL can obviously increase the concentration of inner-cellular calcium.
In general terms: Calcium flux is commonly read through the fluorescence of an indicator in the cells.

In the case of `Cn1c(=O)c2c(ncn2CCN2CCN(c3ccccc3Cl)CC2)n(C)c1=O` [KMUP-1, 7-[2-[4-(2-Chlorophenyl)piperazin-1-yl]ethyl] theophylline], the “RANKL-induced extracellular calcium influx” value is recorded as “cannot apparently inhibit RANKL inducing extracellular calcium influx”.
